# According to publication PMC12136788:
# The other results are listed elsewhere or left out.
# T1: UNK ZnF1-3 (human, UniProt Q9C0B0 31-174)
# T1 sequence: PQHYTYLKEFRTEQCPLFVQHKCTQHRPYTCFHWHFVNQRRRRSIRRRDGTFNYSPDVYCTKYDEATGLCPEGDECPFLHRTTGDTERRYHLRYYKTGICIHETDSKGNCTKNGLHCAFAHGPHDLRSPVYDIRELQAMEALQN
# B1: chr17:76047126:76047127:+_ENSG00000078687_ENST00000588847|hu_mus|FALSE|FALSE (ssRNA)
# RNA: GGGAGUUCUACAGUCCGACGAUCUGUCUGCUUAACAGAAGCAGCUCCUCCCCAGUUACUCACAUUGUUGUCUUGGGGCUUAUGAGCCCAGUUCUGCUGGGGACCAGGCUUGAGAGACUCCCCCCAGUUUGUACCUGGAUUCACCAACAGAGGAUUGAGCAUCA
# B2: chr3:160143891:160143892:+_ENSG00000113810_ENST00000344722|hu_hu|motif|central (ssRNA)
# RNA: GGGAGUUCUACAGUCCGACGAUCAGCAAGUACAUUAGCUUCAAGUUCCUUAACUUGGACAUUCAAAUAUUCUUCUUGCUCGGUUAAACGCUGGAUGCUUGCAGUAAAUUUUUCUAGUGUGUUCCUCAUUUCUCGUUCACUAUGCAACAGAGGAUUGAGCAUCA
# B3: chr14:68739401:68739402:-_ENSMUSG00000022054_ENSMUST00000022638|mus_hu|motif|central (ssRNA)
# RNA: GGGAGUUCUACAGUCCGACGAUCUAUUGUGAUUGGGGGUCGGUGUGUAUACAGUGGCCCAGUGAUGCUUCCUGCAAAUGUGCGGAAUCUAGUCUCUUCACCCUCCAGGAGUUUUCUGUACGCAGCGAUUUCUAUAUCCAGAGCCAACAGAGGAUUGAGCAUCA
# B4: 135161848_135163709_6480_CDS_ENSG00000107290_ENST00000224140|human|control|control (ssRNA)
# RNA: GGGAGUUCUACAGUCCGACGAUCAACUUUGGAAAUGUUUUCAUCUAAUUCUUGCCUCUGUAUUUCCCGUCCACCUCGGCAUAGAGCUCGCUGCCGGGAAAGCUCAUCCAGCUGAUAAUCUAGAAAUUCCUUUCUUUUAUGCAUCAACAGAGGAUUGAGCAUCA
# B5: chr4:25749455:25749456:-_ENSG00000091490_ENST00000264868|hu_hu|hu_hu_hu_mus_False|28_58 (ssRNA)
# RNA: GGGAGUUCUACAGUCCGACGAUCGCACUAUGACCUCUAGAAAAAUCCACAGGGGGAAAAAAUGUAAACCAAUGUACAAAGCUAUUGCCUUCCCUGUGUGUGGAGUGACAAACAAUUGGCUCCUUCUAGCUGCUGGAUUUGGGACAACAGAGGAUUGAGCAUCA
# B6: chr5:145543945:145543946:-_ENSG00000133706_ENST00000545646|hu_hu|hu_hu_hu_mus_True|48_58 (ssRNA)
# RNA: GGGAGUUCUACAGUCCGACGAUCCUGAACGGCCAGUGGUGGGAAAUAAUCAAGCCAGUGCUCUGCUUCAGAAAACUUUACUAUCUCUUCAUCAGACAGCCCAAGGGAUUUCAUAAUGUCCCACUGGUACUUAGAAGAUCCUGCCAACAGAGGAUUGAGCAUCA
# B7: chr6:57672499:57672500:+_ENSMUSG00000062190_ENSMUST00000050077|mus_mus|motif|central (ssRNA)
# RNA: GGGAGUUCUACAGUCCGACGAUCUCGAAGCAGGUAGGUCUGGUCACCAGUGACCCGGUACAGCUGCAGGUACAAAAGUGCGGUGCCUGUCCAACCAGUAUAUGCAGAGCAGUCAUGAGGGUCCGCUGUCUUCAGUCCUUCCUCCAACAGAGGAUUGAGCAUCA
# B8: 109692034_109692919_6190_CDS_ENSG00000148143_ENST00000277225|human|control|control (ssRNA)
# RNA: GGGAGUUCUACAGUCCGACGAUCGAGGUGAUUGCAGAUGGCUCGGAGCGUUGGGUGCACUUCCACACAGAAUUUACAUUUGUAGCCCACCACUUUCCUCUCCUUGAUCUUUGGCACCUCUUCUAAGUGACCAAAAGGCCUCUCCAACAGAGGAUUGAGCAUCA
# B9: 101158937_101159057_933_3pUTR_ENSMUSG00000056537_ENSMUST00000070705|mouse|control|control (ssRNA)
# RNA: GGGAGUUCUACAGUCCGACGAUCUGCAGAGGGGACCUGCUUCUUUCAGCUCUUGCUCUGGUUCUCCGAUGCUCUGGGCUCCGGCUUCUUGCCCUCCUCUGAGCUCUGGUGGUCGGCACUUCUGUUACUGCUUCAGCUGAAUUGCAACAGAGGAUUGAGCAUCA
# B10: 127815162_127815468_294_3pUTR_ENSMUSG00000014498_ENSMUST00000014642|mouse|control|control (ssRNA)
# RNA: GGGAGUUCUACAGUCCGACGAUCAGGCAGCGGCACGAUGAAGAGGGGUCAGCCACAGUGUGUCCUUAGCGUUGACGUUAGCACCUGACAUCAGUAGCAACUGGAGGAUGGGGACAUCGCCUACGUAGGCAGCAGCAUGCAAUGCAACAGAGGAUUGAGCAUCA
# B11: chr10:79329780:79329781:-_ENSMUSG00000035835_ENSMUST00000166057|mus_mus|FALSE|FALSE (ssRNA)
# RNA: GGGAGUUCUACAGUCCGACGAUCGGAUGACAUCUGUCACCAGAGCCGUGGCACACAGGCCAAACACGUGUACACCUGAGGACGAGAGGGCCAGGCCAGGGGAAGGGAGCAGGGGGGAGGGGUGUUCCCCCAAGCCUGUCUACACAACAGAGGAUUGAGCAUCA
# B12: 42840347_42840467_1788_3pUTR_ENSG00000105429_ENST00000334370|human|control|control (ssRNA)
# RNA: GGGAGUUCUACAGUCCGACGAUCCCAGCAGGGCACGGGAGGGGGCAUGGAACACCAUGGAGUGGCCAGUGGCAGCAGGGGGCCGUCCGCCUGCCGGAAUCACCUGCUCCCAAUAGCCCCCGCUGGUGCUGUCAAGGCGGAAACCAACAGAGGAUUGAGCAUCA
# B13: chr2:241070358:241070359:-_ENSG00000172428_ENST00000607357|hu_mus|motif|central (ssRNA)
# RNA: GGGAGUUCUACAGUCCGACGAUCCAGAGACAUCAGUACCCAGUUGGUUCAGACAGUUCCUCUAUUGGUUGACAAGGUCUUCAUUUCGGGUGAUAUCAACACGGUGUCUACAAUCAGCUGGUCGUGUCCCGAGAGACUCCAGACCAACAGAGGAUUGAGCAUCA
# B14: chr4:141471443:141471444:+_ENSG00000179387_ENST00000323570|hu_mus|FALSE|FALSE (ssRNA)
# RNA: GGGAGUUCUACAGUCCGACGAUCGAGCACAGCAUUGCAAUCCAUCAAGAGUCCUUUGAUCCGCUCGUGAAACUUCUCUCUGUACAAGUUGAAGUACAUAAUGCUUUCUGGCUCUUCCUCAAGCCAAAACUUGUCAAAUUCAUACAACAGAGGAUUGAGCAUCA
# B15: chr7:91030085:91030086:-_ENSMUSG00000070462_ENSMUST00000094216|mus_hu|motif|central (ssRNA)
# RNA: GGGAGUUCUACAGUCCGACGAUCAAAUACUCCAGUACAUGCAAGGUAAAAACUUGACGUUGGGGGAAAAAAAAAUCACUCGGUAGUGUAAAUUAAAAAAACACACGCUCACAGUAGCUUCCCCCCAUUUGCAAAUCACAUGGCCAACAGAGGAUUGAGCAUCA
# B16: chr7:135612270:135612271:-_ENSG00000105887_ENST00000393085|hu_mus|hu_hu_hu_mus_False|28_48 (ssRNA)
# RNA: GGGAGUUCUACAGUCCGACGAUCGUUUUUUUCUGAGAUGUUAAAUAGUACUUCAGUGGAAAACAAAACUUAACCUUUUAUUAAUGCAUGUAGUACCAAAAGCAGACCAUGGUUUUACAUUUAUUCAAAAAUAUUAACAUUAAGCAACAGAGGAUUGAGCAUCA
# B17: chr11:124637793:124637794:-_ENSG00000120458_ENST00000374979|hu_hu|FALSE|FALSE (ssRNA)
# RNA: GGGAGUUCUACAGUCCGACGAUCCUGGGAGCUGAUCUCAGCAUAAUGGUAACGGAUAUCCUCUUUCCAACGGGUGUUAUAACCAAUUCCAAAAAUGGCCAGUUUAUUAGAAAGAUGGAGCCUUGAAAAGUCUGUCCAGCUCUGCAACAGAGGAUUGAGCAUCA
# B18: chr11:46405157:46405158:+_ENSG00000110492_ENST00000395566|hu_hu|hu_hu_hu_mus_False|48_98 (ssRNA)
# RNA: GGGAGUUCUACAGUCCGACGAUCCCCUCCCCACUUUGGCUGGGGAGUGUGGGCGUGAGAGGACAGGCGUGAUUGACAGAGCUGACAAGCAGACAGAAGGCACUGGUGGGUUAUAUCUUGGGCCUGUGGGAGAGGAGGGCUCCGCAACAGAGGAUUGAGCAUCA
# B19: chr10:111893599:111893600:+_ENSG00000148700_ENST00000277900|hu_hu|motif|central (ssRNA)
# RNA: GGGAGUUCUACAGUCCGACGAUCAUUCAGACAGAUAGCUGUUUAUGGUGAAUUAUAAUAAUACUUCAUGAGGGCAGAGCGGAUUAAAACUAGUAAUUGCUUAAAAUUCAAAGCCAUUUCUGGACAUAUAAAAUGAGAGAUGAACAACAGAGGAUUGAGCAUCA
# B20: chr11:77336104:77336105:-_ENSG00000074201_ENST00000525064|hu_mus|hu_hu_hu_mus_False|18_28 (ssRNA)
# RNA: GGGAGUUCUACAGUCCGACGAUCCUCACACAUUGCUGUGAACAUCGCCUCCAAUGCUGACUUAUCACUGGGCACAAAUCGAAAUUCAGAAAUGGGUUCAACAUCAUCAUCACUGUCUUCCUCUUCUUCAGAGAGAGGUUCUUUCAACAGAGGAUUGAGCAUCA
# B21: chr10:112343607:112343608:+_ENSG00000108055_ENST00000361804|hu_hu|motif|central (ssRNA)
# RNA: GGGAGUUCUACAGUCCGACGAUCUUCUAUUUUUUCAAGCAGCUUCUGCCUCUCUUUUAAUAAACGUUUCCUUUGUUCACGGUUGCCUGCUAGUUCAUCUUGUAAAUCCUUGGCUUUAAGCUCCAACUUAGUCCUCUGCUUAAUCAACAGAGGAUUGAGCAUCA
# B22: chr4:83987663:83987664:+_ENSG00000138663_ENST00000264389|hu_mus|motif|central (ssRNA)
# RNA: GGGAGUUCUACAGUCCGACGAUCGCGUCCUUCCGUUAUCAUCUGAGAUGCUAUCUUUUCUGCCUUAGCUGCAGGGAUCUCGGAAAGAGCUCCAAGUUCUUCAAAGGUGAUAUUGUUAUAUAAUUUGCUUGCUGACAACAAAUUCAACAGAGGAUUGAGCAUCA
# Target: T1, UNK ZnF1-3
# Assay: nsRBNS (natural sequence RNA bind-n-seq); RBNS binding buffer (assumed for nsRBNS): 25 mM Tris pH 7.5, 150 mM KCl, 3 mM MgCl2, 0.01% Triton X-100, 500 ug/ml BSA, 20 U/ml SUPERase-In, 4 C; UNK is unkempt and MSI1 is Musashi-1; names of the RNAs are library labels; protein concentration not given here; high values mean tight binding
row,Binder,binding signal [enrichment R]
1,B1,0.724
2,B2,0.84
3,B3,0.873
4,B4,0.452
5,B5,1.27
6,B6,1.24
7,B7,1
8,B8,0.805
9,B9,0.441
10,B10,1.82
11,B11,2.15
12,B12,0.679
13,B13,0.882
14,B14,1.13
15,B15,1.77
16,B16,1.4
17,B17,0.772
18,B18,2.2
19,B19,3.18
20,B20,0.931
21,B21,0.373
22,B22,0.648
